Reference: PubChem BioAssay AID504333 (National Center for Advancing Translational Sciences (NCATS), 2011)
Out of some 360,000 compounds screened, about 16,000 (4.4%) were called active. This list was built around the results that the source calls inconclusive (neither active nor inactive); the mix of calls is not that of the screen. Calls follow the shape of the dose curve; as a rule, active = well fitted inhibition curve with a large enough effect; inconclusive = small, poorly fitted or top-dose-only effect; inactive = no such curve, though single readings can be large or run the other way. Potencies beside an inconclusive call are fits to weak or partial responses and may not hold up.

Each compound was assayed against Bromodomain adjacent to zinc finger domain protein 2B (Homo sapiens) (UniProt Q9UIF8) (assay: qHTS Assay for Inhibitors of BAZ2B). Settings: AlphaScreen BAZ2B-H3K14Ac peptide displacement; activity change, negative = inhibition: at 114 µM (top of the series) unless noted.
Method in brief: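 BAZ2B (50 nM) with biotin-H3(5-23)K14Ac peptide (50 nM) in PBS pH 7.4, 0.01% Tween-20, preformed 30 min, then compound 30 min at room temperature; top concentration 110uM. AlphaScreen streptavidin donor/nickel chelate acceptor beads (10 ug/mL final), 20 min dark, signal read.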
% is scaled to controls: 0 for no effect and ±100 for the full control effect; potency is read from the fitted curve at half-maximal effect; tags tell the direction and shape of the fitted curve.
Also: nearly all actives have a fitted effect of over 60% in size.

Sequence of UniProt Q9UIF8 (Q9UIF8 whole entry, looked up, the tested form may be a part): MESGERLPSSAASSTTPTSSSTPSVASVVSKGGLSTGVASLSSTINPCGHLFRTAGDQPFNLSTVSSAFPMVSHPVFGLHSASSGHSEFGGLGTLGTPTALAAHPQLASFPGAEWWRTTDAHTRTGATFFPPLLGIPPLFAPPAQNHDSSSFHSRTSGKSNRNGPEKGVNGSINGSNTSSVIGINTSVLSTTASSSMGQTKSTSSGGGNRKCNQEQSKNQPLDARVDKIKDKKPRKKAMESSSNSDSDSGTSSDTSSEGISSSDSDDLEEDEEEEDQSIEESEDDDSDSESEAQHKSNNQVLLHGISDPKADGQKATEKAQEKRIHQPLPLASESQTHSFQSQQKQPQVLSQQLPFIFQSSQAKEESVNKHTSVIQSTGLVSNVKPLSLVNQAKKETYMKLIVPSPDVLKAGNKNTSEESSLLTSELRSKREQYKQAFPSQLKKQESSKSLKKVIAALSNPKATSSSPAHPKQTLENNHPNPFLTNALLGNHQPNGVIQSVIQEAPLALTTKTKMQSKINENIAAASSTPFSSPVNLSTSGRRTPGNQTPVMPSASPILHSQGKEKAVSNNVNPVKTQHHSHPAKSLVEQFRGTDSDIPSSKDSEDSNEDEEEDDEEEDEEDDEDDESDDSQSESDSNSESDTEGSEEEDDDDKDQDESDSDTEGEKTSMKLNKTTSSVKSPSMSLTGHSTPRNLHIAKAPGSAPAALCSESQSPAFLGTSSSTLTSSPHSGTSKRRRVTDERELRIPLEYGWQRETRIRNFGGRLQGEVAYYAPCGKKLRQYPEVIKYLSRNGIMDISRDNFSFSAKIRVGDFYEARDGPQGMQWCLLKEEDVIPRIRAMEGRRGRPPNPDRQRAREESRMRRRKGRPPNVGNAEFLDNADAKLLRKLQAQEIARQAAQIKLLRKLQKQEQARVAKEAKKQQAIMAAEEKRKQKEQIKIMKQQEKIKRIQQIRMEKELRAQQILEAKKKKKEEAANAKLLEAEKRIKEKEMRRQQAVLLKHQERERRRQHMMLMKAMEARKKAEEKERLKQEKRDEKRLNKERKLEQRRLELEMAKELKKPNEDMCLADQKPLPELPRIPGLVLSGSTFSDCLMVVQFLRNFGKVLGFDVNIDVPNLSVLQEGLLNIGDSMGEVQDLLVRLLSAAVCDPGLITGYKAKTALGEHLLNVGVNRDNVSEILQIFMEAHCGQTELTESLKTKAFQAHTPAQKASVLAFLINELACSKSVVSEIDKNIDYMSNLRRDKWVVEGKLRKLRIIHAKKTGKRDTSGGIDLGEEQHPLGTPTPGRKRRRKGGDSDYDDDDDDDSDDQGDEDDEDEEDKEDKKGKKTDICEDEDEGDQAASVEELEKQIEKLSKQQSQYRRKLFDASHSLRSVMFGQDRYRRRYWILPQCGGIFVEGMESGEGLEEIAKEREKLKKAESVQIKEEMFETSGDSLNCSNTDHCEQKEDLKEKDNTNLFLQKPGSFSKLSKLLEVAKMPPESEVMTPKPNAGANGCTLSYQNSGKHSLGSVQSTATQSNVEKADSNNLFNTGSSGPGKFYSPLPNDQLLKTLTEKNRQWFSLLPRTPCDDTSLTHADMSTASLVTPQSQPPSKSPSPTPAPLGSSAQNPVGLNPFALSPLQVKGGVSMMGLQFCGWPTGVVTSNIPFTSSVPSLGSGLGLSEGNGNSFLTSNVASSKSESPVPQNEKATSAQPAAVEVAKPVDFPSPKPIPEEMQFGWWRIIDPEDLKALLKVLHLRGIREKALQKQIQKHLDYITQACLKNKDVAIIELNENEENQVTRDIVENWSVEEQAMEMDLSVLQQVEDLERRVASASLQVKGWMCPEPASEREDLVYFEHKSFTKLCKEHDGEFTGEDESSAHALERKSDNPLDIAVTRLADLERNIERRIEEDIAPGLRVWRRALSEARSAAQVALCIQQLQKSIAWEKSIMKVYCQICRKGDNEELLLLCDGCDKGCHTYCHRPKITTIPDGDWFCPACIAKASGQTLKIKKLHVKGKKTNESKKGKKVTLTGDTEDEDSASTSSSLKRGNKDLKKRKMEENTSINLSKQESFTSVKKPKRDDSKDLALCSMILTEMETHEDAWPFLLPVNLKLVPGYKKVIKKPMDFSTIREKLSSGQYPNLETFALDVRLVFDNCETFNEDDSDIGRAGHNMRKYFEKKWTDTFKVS

Q: How did the Potency turn out when `COc1cc(OC)cc(C(=O)N2CCN(Cc3ccccc3[N+](=O)[O-])CC2)c1` was run?
A: active: 20 µM

Q: For `CCOc1ccc(S(=O)(=O)N(C)c2ccc(OCC(=O)Nc3nc(-c4cc(OC)ccc4OC)cs3)cc2)cc1`, which “activity change, negative = inhibition” value is on record?
A: inactive: 5.02%

Q: For `CCN(CC)c1ccc(Nc2nc(-c3cccnc3)cs2)cc1`, which Potency is on record?
A: active: 20 µM

Q: How did the Potency turn out when `CC1CCCN(C(=O)COC(=O)c2ccc3[nH]c4c(c3c2)CCCC4)C1` (stereo not given) was run?
A: active: 50.1 µM

Q: With `COc1ccc(C(C)(C)C)cc1NC(=O)COC(=O)c1ccc([N+](=O)[O-])o1` as the compound, how does the Potency read?
A: inconclusive: 39.8 µM [inhibitor, partial curve]

Q: For `O=C(CSc1nnc(-c2cccnc2)n1Cc1ccco1)N1c2ccccc2Sc2ccccc21`, which Potency is on record?
A: inconclusive: 44.7 µM [inhibitor, partial curve]

Q: Which “activity change, negative = inhibition” value does the source give for `COCCCn1c(=N)c(C(=O)NC2CCCCC2)cc2c(=O)n3cc(C)ccc3nc21` here?
A: inactive: 3.22%

Q: With `COC(=O)C1CSC(c2ccc(Cl)cc2)N1C(=O)c1ccccc1` (stereo not given) as the compound, how does the Potency read?
A: inconclusive: 89.1 µM [inhibitor, single point]

Q: How did the “activity change, negative = inhibition” value turn out when `Cc1ccc(-c2nc3ccccc3c(=O)n2NC(=O)COc2ccccc2)cc1` was run?
A: inactive: 2.18%

Q: With `CC(=O)Oc1ccc(CC(C(=O)O)N2C(=O)c3ccccc3C2=O)cc1` (stereo not given) as the compound, how does the Potency read?
A: inconclusive: 79.4 µM [inhibitor, single point]

Q: `CC(=O)c1cc(-c2ccc(F)cc2)n(CCC(=O)Nc2nc3ccc(C)cc3s2)c1C` was tested. Which “activity change, negative = inhibition” value did it give?
A: inactive: -0.378%

Q: Which Potency does the source give for `Cc1ccc(-c2cc(C(=O)N3CCN(c4ncccn4)CC3)c3cc(Br)ccc3n2)o1` here?
A: inconclusive: 56.2 µM [inhibitor, partial curve]

Q: For `Cc1cc2cc(CNC(=O)Cc3cccs3)ccc2n1C`, which Potency is on record?
A: inconclusive: 89.1 µM [inhibitor, single point]

Q: For `COc1ccccc1NC(=O)c1ccc2[nH]c(C)c(C)c2c1`, which Potency is on record?
A: inconclusive: 44.7 µM [inhibitor, partial curve]

Q: For `C=CCC1(CC=C)CCCN1C(=O)C1CCC(=O)N(CCc2ccccc2)C1` (stereo not given), which Potency is on record?
A: inconclusive: 100 µM [inhibitor, partial curve]

Q: Which Potency does the source give for `COc1ccc(NC(=S)Nc2ccc(N)c([N+](=O)[O-])c2)cc1` here?
A: inconclusive: 50.1 µM [inhibitor, partial curve]

Q: With `Cc1c(O)cccc1C(=O)N[C@@H](CSc1ccccc1)[C@H](O)CN1C[C@H]2CCCC[C@H]2C[C@H]1C(=O)NC(C)(C)C` as the compound, how does the Potency read?
A: inconclusive: 89.1 µM [inhibitor, single point]

Q: Which Potency does the source give for `COc1ccc(/C=C2\SC(=S)N(N3C(=O)CCC3=O)C2=O)cc1O` here?
A: inconclusive: 56.2 µM [inhibitor, single point]

Q: How did the Potency turn out when `Cc1cc(Cl)ccc1C(=O)C1CCCN(C(=O)c2ccoc2)C1` (stereo not given) was run?
A: inconclusive: 3.98 µM [inhibitor, full curve, poor fit]

Q: How did the Potency turn out when `Clc1ccc(CN2CCc3c([nH]c4ccccc34)C2)cc1Cl` was run?
A: active: 31.6 µM

Q: `CCOc1ccc(N(CC(=O)N/N=C/c2ccc(OC(C)C)cc2)S(C)(=O)=O)cc1` was tested. Which Potency did it give?
A: active: 56.2 µM

Q: For `Cc1nc2c(C)cccn2c1/C(O)=C1\C(=O)C(=O)N(CCN2CCOCC2)C1c1cccs1` (stereo not given), which Potency is on record?
A: inconclusive: 79.4 µM [inhibitor, single point]

Q: How did the Potency turn out when `Cc1ccc(-n2nc3c(=O)n(C(C)C(=O)NCc4ccc5c(c4)OCO5)nc(C)c3c2C)cc1` (stereo not given) was run?
A: active: 79.4 µM

Q: For `CCOc1ccc(-c2nc(C#N)c(N3CCCCCC3)o2)cc1`, which Potency is on record?
A: active: 11.2 µM

Q: For `COc1cc(C(=O)NC(=S)Nc2ccc(Cl)cn2)cc(OC)c1OC`, which “activity change, negative = inhibition” value is on record?
A: inactive: -9.26%

Q: How did the Potency turn out when `Cc1ccc2cc(C(c3nnnn3Cc3ccccc3)N3CCc4ccccc43)c(=O)[nH]c2c1` (stereo not given) was run?
A: inconclusive: 25.1 µM [inhibitor, full curve, poor fit]

Q: With `CN1CCN(c2ccc(NC(=O)CN3CCOCC3)cc2F)CC1` as the compound, how does the Potency read?
A: inconclusive: 89.1 µM [inhibitor, single point]

Q: With `O=C(COC(=O)CNS(=O)(=O)c1cccc(Br)c1)NC(=O)Nc1ccc2c(c1)OCCO2` as the compound, how does the Potency read?
A: inconclusive: 89.1 µM [inhibitor, single point]

Q: How did the Potency turn out when `CCOc1ccc(-c2nc(C#N)c(N3CCN(CC)CC3)o2)cc1` was run?
A: inconclusive: 50.1 µM [inhibitor, partial curve]

Q: How did the Potency turn out when `COc1cccc(-c2nn(-c3ccc(C)cc3)cc2C(=O)N2CCc3cc(OC)c(OC)cc3C2)c1` was run?
A: inconclusive: 79.4 µM [inhibitor, single point]

Q: With `Cc1cccc(N2CCN(C(=O)c3cc4ccc5cccnc5c4[nH]3)CC2C)c1` (stereo not given) as the compound, how does the Potency read?
A: active: 28.2 µM

Q: With `CN(C)S(=O)(=O)c1cccc(NC(=O)COC(=O)/C=C/c2ccco2)c1` as the compound, how does the Potency read?
A: inconclusive: 89.1 µM [inhibitor, single point]

Q: For `COc1ccc(NC2CCCN(C(=O)CSc3ccccc3)C2)cc1OC` (stereo not given), which Potency is on record?
A: inconclusive: 70.8 µM [inhibitor, partial curve]

Q: How did the Potency turn out when `COc1ccc(CCNc2cc(=O)[nH]c(N)n2)cc1` was run?
A: inconclusive: 89.1 µM [inhibitor, single point]

Q: How did the Potency turn out when `CCN(CC)CCN(C(=O)c1ccc2ncsc2c1)c1nc2cc3c(cc2s1)OCO3` was run?
A: active: 39.8 µM

Q: `O=C(O)c1ccc(N=N/C(=N\Nc2ccc(C(=O)O)cc2)c2ccccc2)cc1` was tested. Which Potency did it give?
A: active: 28.2 µM

Q: How did the Potency turn out when `CCCCNC(=O)CN1CCN(c2ncc(NC(=O)c3ccc(Cl)cc3)cc2C(=O)O)CC1` was run?
A: active: 50.1 µM

Q: Which “activity change, negative = inhibition” value does the source give for `CCOC(=O)C1C(=O)CC(C)(O)C(C(=O)OCC)C1c1ccc(F)cc1` (stereo not given) here?
A: inactive: 4.17%

Q: With `CCOC(=O)C1=C(C)NC(C)=C(C(=O)OCC)C1c1ccc([N+](=O)[O-])s1` as the compound, how does the Potency read?
A: inconclusive: 28.2 µM [inhibitor, full curve]

Q: `COc1ccc(C2(C)NC(=O)N(CC(=O)Nc3ccc4c(c3)OCO4)C2=O)cc1OC` (stereo not given) was tested. Which Potency did it give?
A: inconclusive: 89.1 µM [inhibitor, single point]

Q: `CCCn1c(SCC(=O)Nc2ccccc2CC)nnc1C(C)C` was tested. Which “activity change, negative = inhibition” value did it give?
A: inactive: 7.04%

Q: `C=CCN1C(=O)C(CC(=O)Nc2ccc(OCCC)cc2)N(CCCN2CCN(Cc3ccccc3)CC2)C1=S` (stereo not given) was tested. Which Potency did it give?
A: active: 10 µM

Q: Which Potency does the source give for `CC(OC(=O)c1ccc(NC(=O)CC#N)cc1)C(=O)Nc1ccc(Oc2ccccc2)cc1` (stereo not given) here?
A: inconclusive: 50.1 µM [inhibitor, partial curve]

Q: Which Potency does the source give for `CCCN1C(=O)/C(=C2/C=Cc3ccccc3N2CC)SC1=S` here?
A: active: 2.82 µM

Q: `O=c1[nH]c(=S)[nH]c2c1C(c1ccc(Br)cc1)c1c([nH]c(=S)[nH]c1=O)O2` was tested. Which Potency did it give?
A: active: 22.4 µM

Q: `COc1ccccc1-c1noc(CCCC(=O)NC2CCCCC2)n1` was tested. Which “activity change, negative = inhibition” value did it give?
A: inactive: -1.21%

Q: With `CN(C)CCC(c1ccccc1)c1ccccn1` (stereo not given) as the compound, how does the Potency read?
A: inconclusive: 100 µM [inhibitor, partial curve, poor fit]

Q: How did the “activity change, negative = inhibition” value turn out when `CCOc1c(Br)cc(/C=C2\C(=O)N(CCC#N)N=C2C)cc1OC` was run?
A: inactive: -0.0526%

Q: `CC(C)c1ccc(Nc2c(-c3ccc(N(C)C)cc3)nc3cnccn23)cc1` was tested. Which “activity change, negative = inhibition” value did it give?
A: inactive: -30.2%

Q: Which Potency does the source give for `CN(Cc1nc2ccccc2c(=O)[nH]1)Cc1cc(=O)oc2ccc3ccccc3c12` here?
A: inconclusive: 89.1 µM [inhibitor, single point]

Q: How did the Potency turn out when `CC(C)CC1=C/C(=C/c2ccc(-c3ccccc3)o2)C(=O)O1` was run?
A: active: 44.7 µM

Q: With `Cc1cc2n(n1)CCC(=O)N2Cc1ccc(C(=O)Nc2cccc(C(F)(F)F)c2)cc1` as the compound, how does the “activity change, negative = inhibition” value read?
A: inactive: -13.9%

Q: Which Potency does the source give for `CCOc1ccccc1-n1nnnc1SCC(=O)NC(=O)NCc1ccco1` here?
A: active: 50.1 µM

Q: How did the Potency turn out when `Cc1nc(N2CCOCC2)[nH]c(=O)c1CCC(C)C` was run?
A: inconclusive: 89.1 µM [inhibitor, single point]

Q: Which Potency does the source give for `Nc1nc(CN2CCN(Cc3ccc4c(c3)OCO4)CC2)nc(Nc2ccccc2)n1` here?
A: inconclusive: 89.1 µM [inhibitor, single point]

Q: With `Cc1ccc(-n2nc3c(=O)n(C(C)C(=O)NCc4ccccc4C)nc(C)c3c2C)cc1` (stereo not given) as the compound, how does the Potency read?
A: inconclusive: 79.4 µM [inhibitor, single point]

Q: With `Cc1ccc2nc(Cl)c(/C=N/Nc3ccc(C(=O)O)cc3)cc2c1` as the compound, how does the Potency read?
A: inconclusive: 79.4 µM [inhibitor, partial curve]

Q: With `Cc1occc1-c1nnc(SCC(=O)N2c3ccccc3CCc3ccccc32)n1C` as the compound, how does the Potency read?
A: inconclusive: 89.1 µM [inhibitor, single point]

Q: Which Potency does the source give for `Cc1cc(OCC(=O)Nc2ccncc2)ccc1Cl` here?
A: inconclusive: 89.1 µM [inhibitor, single point]

Q: Which Potency does the source give for `O=C(CSc1ccc(Cl)cc1)N1CCN(c2c(Cl)cccc2[N+](=O)[O-])CC1` here?
A: inconclusive: 31.6 µM [inhibitor, partial curve]

Q: `Cc1nc(C(=O)O)nn1-c1cc(Cl)ccc1Cl` was tested. Which Potency did it give?
A: inconclusive: 70.8 µM [inhibitor, single point]

Q: `N#Cc1c(NC(=O)C2C3C=CC(C3)C2C(=O)O)sc2c1CCCCC2` (stereo not given) was tested. Which Potency did it give?
A: inconclusive: 79.4 µM [inhibitor, partial curve]

Q: Which Potency does the source give for `O=C(CSc1nc2ccccc2s1)Nn1cnnc1` here?
A: inconclusive: 89.1 µM [inhibitor, single point]

Q: How did the “activity change, negative = inhibition” value turn out when `COc1ccccc1NC(=O)c1sc2nc(C)c(C(=O)Nc3ccc(C)cc3C)c(-c3ccccc3Cl)c2c1N` was run?
A: inactive: 73.6%

Q: With `Cc1[nH]c2ccccc2c1/C=N/NC(=O)C1CC1(c1ccccc1)c1ccccc1` (stereo not given) as the compound, how does the Potency read?
A: inconclusive: 39.8 µM [inhibitor, partial curve]

Q: With `Cc1ccc(SCCCCN2CCNCC2)cc1` as the compound, how does the Potency read?
A: active: 39.8 µM

Q: How did the “activity change, negative = inhibition” value turn out when `CN(C)C(=O)CSc1ccc(S(=O)(=O)N2CCCC2)cn1` was run?
A: inactive: -3.17%

Q: For `Cc1cc(C)c(O)c(N)c1`, which Potency is on record?
A: inconclusive: 25.1 µM [inhibitor, partial curve]

Q: Which “activity change, negative = inhibition” value does the source give for `CCN(CC)CC(=O)Nc1ccc(C)cc1C(=O)c1ccccc1` here?
A: inactive: 1.28%

Q: How did the Potency turn out when `O=[N+]([O-])/C(C(Cl)=C(Cl)Cl)=C(/Sc1ccccc1)N1CCCCC1` was run?
A: active: 35.5 µM
